{
  "source": "paper PMC9235362",
  "about": "(Journal of medicinal chemistry, 2021)",
  "origin": "cited, not measured here",
  "system": "Sprague Dawley rats",
  "conditions": "cumulative doses administered 5 min apart, up to 10 mg/kg i.v.; cited from earlier work",
  "data": [
    {"smiles": "CC[C@@H]1CN2CCc3c([nH]c4cccc(OC)c34)[C@@H]2C[C@@H]1/C(=C\\OC)C(=O)OC", "note": "[mitragynine]", "values": [
      {"measurement": "Antinociception in hotplate assay", "result": "did not produce antinociception"}
    ]}
  ]
}
